# The supplement of paper PMC11417369
# ± gives the standard deviation of the averaged measurements. The list shows a part of the results.
# Test system: PfAP2-I AP2 domain 3 (GST-tagged)
# Test: gcPBM binding intensity (ln(normalized median fluorescence intensity)); higher = stronger DNA binding
# In short: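 For binding intensity, the highest Masliner-normalised natural-log median intensity across replicate spots of either probe orientation was taken. Protein bound to the array was stained with Alexa488 anti-GST antibody and scanned at 488 nm. The protein, GST-tagged P. falciparum DNA-binding domains from E. coli at about 25 μg on average, had been applied for 1 h to an Agilent 4 × 180k array of primer-extended double-stranded 36-bp intergenic genomic probes and negative controls.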
row,Sequence,gcPBM binding intensity (ln)
1,TTATTCTAAAAAGGGTGTACACAAACGAATGGAAAA [XGTACX_site5662],8.98 ± 0.38
2,AGCAGTCAGCAGGACAGTACACAGTAGCCAGGAAAT [XGTACX_site4877],7.78 ± 0.95
3,AAAAAAAAAATTTAGGTGCATACAAATAAATTATAT [GTGCAC_site9521],10.2 ± 0.48
4,ATGGCTAAAAGTTGCACACACACAAAAAAAAAAAAA [CACACA_site3289],8.76 ± 0.16
5,TATATATTAATATGCACACACAAGAAGTAATTATAA [CACACA_site3193],9.085 ± 0.035
6,GGCATACACGGACACACACACACACCGACATATATA [CACACA_site4493],8.46 ± 0.3
7,ATTATATAACAAAATAGTACATATATTTATTACATC [XGTACX_site336],7.8 ± 0.47
8,TGCACAAAATTATGCACACACCTAAAATTAATTTTT [CACACA_site5596],9.98 ± 0.32
9,ATTCTAATCATATACACACCCATATATATATATATA [CACACA_site1774],9.4 ± 0.46
10,GGCAATGATTTTAGGTGTACTTAAAAATCAAATTAA [XGTACX_site8587],7.99 ± 0.13
11,TAATTTCTTATGTGCTATCTTATATAGAATTAATTT [CACACA_negctrl_site1726],7.72 ± 0.48
12,TATAAAAAATAAAATACACACACATATATATATATA [CACACA_site8365],9.34 ± 0.2
13,AAGAAAAAAAAAAAAACACACATATATTTATTTATA [CACACA_site7042],7.3 ± 0.42
14,GAAAGAAAAAATGATGAATAGAGATCAAATCTATAT [XGTACX_negctrl_site28],7.46 ± 0.73
15,TATACACATAGACACACACACAAAAAAAAAAAAAAA [CACACA_site6338],8.02 ± 0.71
16,TGACATATTATTAGGTGGTCACGTCTCCACGTCAAG [XGTACX_site7943],7.89 ± 0.45
17,TTGAGAAAAATTAATGGTACACATATTATAAGTATA [XGTACX_site6539],7.88 ± 0.32
18,TGTATAACATTTAGGTGTACAATTATATATAATATA [XGTACX_site8131],7.99 ± 0.32
19,TAATTGTACACATGCACACACAAATATTATAGATGT [CACACA_site6528],8.665 ± 0.035
20,TAAAAATAAATAAATACATGCACCAAAAATAAATTT [TGCATGCA_site801],9.43 ± 0.17
21,AAAAAAAAAAAACATACACACACATATATATATATA [CACACA_site8452],9.485 ± 0.064
22,ATTGTTAAATATAATACACACGTTTTTAAAAATATA [CACACA_site5239],7.8 ± 0.49

row,Sequence,gcPBM binding intensity (ln)
1,ATTGCCATTGTTAATGCATGTAACAATTCAGCTCAT [TGCATGCA_site56],8 ± 0.83
2,AAAATTATTTAGTAAGTGCAAAAAAAAAAAAAAAAA,10.1 ± 0.23
3,AATTTGATTATAAATTGTACATATATATATTAAAAG [XGTACX_site5461],7.95 ± 0.41
4,TTTTTGTAAACCTACTTCATAATTATTTATATCTAT [XGTACX_negctrl_site599],7.67 ± 0.87
5,ACATATATTTATATATGTACATATGATATATACATA [XGTACX_site6122],8.02 ± 0.092
6,CTTTTGTATATTATATGTACACACAATAAGTTAATA [XGTACX_site1684],7.93 ± 0.32
7,TACATATAAACAATAACACACACCTAGGTACATGGA [CACACA_site8178],7.75 ± 0.57
8,AATTAACAAAAACACACACACACACCCACAAAAAAA [CACACA_site517],8.315 ± 0.078
9,AGGCTATAATACCATACACACATTTATAAAATAACA [CACACA_site6990],7.86 ± 0.59
10,TAAAAATTTGATCAAACACACGTTGCATAAATTATA [CACACA_site6040],7.98 ± 0.51
11,TATTTATTAAGACACACACACACACGCACAAAATAA [CACACA_site6254],8.71 ± 0.057
12,AGGGTTCATATATTAACACACACATACATATTATAT [CACACA_site8959],7.9 ± 0.57
13,TATACACATATATATAGTACATATATAATTTACTAT [XGTACX_site1849],7.64 ± 0.19
14,AGTATTCTAATTTTTAAACACACAAATATAAATAAG [CACACA_site9029],7.92 ± 0.18
15,ATATATACCTATATTACACACTTCTTATTCTAAGAA [CACACA_site7421],7.86 ± 0.52
16,ATTGTTACATAAAATGCACACTTTCAAATATGCTAA [CACACA_site5600],9.18 ± 0.11
17,TGAAATTAAATATATACACACATATATATTTATATG [CACACA_site3516],7.46 ± 0.35
18,AAACAAAAGGAAAACATATATATATTAAATGTATAT [CACACA_negctrl_site1663],7.49 ± 0.7
19,ATTTAGAATGTTCCTACACACCAAATTTAAGGGTGC [CACACA_site5320],7.73 ± 0.52
20,TTTTTTTTTCTCCATACACACTTGATAAAACTTTTT [CACACA_site4512],8.04 ± 0.56
21,ATTTATATTCCAATATGTACATATTTTCGTATAACC [XGTACX_site8507],7.95 ± 0.71
22,ATTACAAATTCTTTCAGTACATATAAAGAAAAAAAT [XGTACX_site7786],7.87 ± 0.49
